# ± gives the uncertainty stated by the source. The list shows a part of the results. Phosphotyrosine is written y.
# Molecular target: GRB2 (endogenous complexes from cell lysate), P62993
# Assay: GRB2 complex binding differential signal (pY peptide minus Ala control peptide) (fluorescence intensity units); higher = stronger GRB2 complex binding
# Settings: MCF7
# 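Also: phosphopeptide probes on the chip at 1–4 µM, lysate proteins bound in 20 mM Tris pH 7.0 buffer with 140 mM NaCl, 1% Triton X-100 and 5% glycerol.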
row,Binder,GRB2 complex binding differential signal
1,yAKISD [ZAP70_474/A1],993 ± 380
2,yYTARS [ZAP70_492/A1],4630 ± 520
3,yDSNSK [BMX_216/A1],1750 ± 260
4,yTARSA [ZAP70_493/A1],2270 ± 590
5,yIPSNY [p59Fyn_132/A1],535 ± 840
6,yGSQPN [BMX_224/A1],1160 ± 430
7,yVSSVG [BMX_566/A1],2060 ± 460
8,yACASP [BRAF_746/A1],1080 ± 360
9,ySPSPS [BSN_1125/A1],1330 ± 340
10,yFASSS [BSN_1471/A1],863 ± 550
11,yPQGLP [BSN_1971/A1],452 ± 830
12,ySSMSD [BSN_1980/A1],1250 ± 460
13,yGVSPN [ABL1_226/A1],2190 ± 1300
14,yHAQRI [BSN_1995/A1],1660 ± 570
15,yGSVTD [BSN_2038/A1],1320 ± 460
16,ySSVSN [BSN_2060/A1],3190 ± 620

# Same assay, conditions: MCF10A
row,Binder,GRB2 complex binding differential signal
1,yAKISD [ZAP70_474/A1],617 ± 180
2,yYTARS [ZAP70_492/A1],1120 ± 270
3,yDSNSK [BMX_216/A1],1440 ± 640
4,yTARSA [ZAP70_493/A1],1640 ± 810
5,yIPSNY [p59Fyn_132/A1],374 ± 490
6,yGSQPN [BMX_224/A1],1270 ± 290
7,yVSSVG [BMX_566/A1],2740 ± 670
8,yACASP [BRAF_746/A1],858 ± 320
9,ySPSPS [BSN_1125/A1],2660 ± 910
10,yFASSS [BSN_1471/A1],110 ± 270
11,yPQGLP [BSN_1971/A1],308 ± 540
12,ySSMSD [BSN_1980/A1],394 ± 230
13,yGVSPN [ABL1_226/A1],2000 ± 510
14,yHAQRI [BSN_1995/A1],1820 ± 740
15,yGSVTD [BSN_2038/A1],454 ± 380
16,ySSVSN [BSN_2060/A1],3340 ± 930

# Same assay, conditions: MDA-MB-231
row,Binder,GRB2 complex binding differential signal
1,yAKISD [ZAP70_474/A1],512 ± 580
2,yYTARS [ZAP70_492/A1],1220 ± 430
3,yDSNSK [BMX_216/A1],1140 ± 450
4,yTARSA [ZAP70_493/A1],1010 ± 470
5,yIPSNY [p59Fyn_132/A1],620 ± 360
6,yGSQPN [BMX_224/A1],384 ± 430
7,yVSSVG [BMX_566/A1],1000 ± 360
8,yACASP [BRAF_746/A1],904 ± 490
9,ySPSPS [BSN_1125/A1],903 ± 510
10,yFASSS [BSN_1471/A1],1000 ± 280
11,yPQGLP [BSN_1971/A1],664 ± 490
12,ySSMSD [BSN_1980/A1],596 ± 340
13,yGVSPN [ABL1_226/A1],551 ± 700
14,yHAQRI [BSN_1995/A1],646 ± 310
15,yGSVTD [BSN_2038/A1],916 ± 480
16,ySSVSN [BSN_2060/A1],288 ± 270

# Same assay, conditions: T47D
row,Binder,GRB2 complex binding differential signal
1,yAKISD [ZAP70_474/A1],338 ± 1500
2,yYTARS [ZAP70_492/A1],1990 ± 1400
3,yDSNSK [BMX_216/A1],1460 ± 1200
4,yTARSA [ZAP70_493/A1],1530 ± 1200
5,yIPSNY [p59Fyn_132/A1],1060 ± 1100
6,yGSQPN [BMX_224/A1],929 ± 1200
7,yVSSVG [BMX_566/A1],2180 ± 1200
8,yACASP [BRAF_746/A1],4090 ± 1300
9,ySPSPS [BSN_1125/A1],780 ± 1700
10,yFASSS [BSN_1471/A1],2090 ± 1400
11,yPQGLP [BSN_1971/A1],1060 ± 1200
12,ySSMSD [BSN_1980/A1],203 ± 1200
13,yGVSPN [ABL1_226/A1],1170 ± 1100
14,yHAQRI [BSN_1995/A1],973 ± 1100
15,yGSVTD [BSN_2038/A1],1100 ± 990
16,ySSVSN [BSN_2060/A1],2600 ± 2000
